Legend:
[1] = system: mTRPC5-YFP (HM1-C5Y cells); assay: Electrophysiological measurement of agonist-induced ion currents in HM1 cell line stably expressing mTRPC5-YFP; assay type: cell-based, murine; conditions: n=10 carbachol, n=6 trypsin
Description: (§1) HM1 cells were transfected with 4 μg mTRPC5-YFP construct using Lipofectamine 2000. The construct was generated by inserting a XbaI/NotI fragment of mTRPC5-GFP (Strubing C, Krapivinsky G, Krapivinsky L, & Clapham D E (2003). Formation of novel TRPC channels by complex subunit interactions in embryonic brain. J Biol Chem 278, 39014-39019) into pcDNA3.1(−)zeo. The YFP fusion was obtained by joining a NotI/EcoRI cut YFP-PCR fragment to the channel C-terminus. 24 hrs post transfection clonal selection started by cultivating the cells in complete medium (DMEM/Nutrient F12 (with glutaMAX I; Invitrogen, Karlsruhe, Germany) supplemented with 10% (v/v) FBS (PAA, Pasching, Austria), 1 mM glutamine 400 μg/mL geneticine, 50 μg/mL zeocin (all from Invitrogen, Karlsruhe, Germany)). After several days selection single clones were isolated by manual picking of grown colonies. One clone was selected for further studies. Functional expression of the ion channel was tested by electrophysiological measurements. Current densities of carbachol and trypsin-induced ion currents measured as described previously (Strubing C, Krapivinsky G, Krapivinsky L, & Clapham D E (2001). TRPC1 and TRPC5 form a novel cation channel in mammalian brain. Neuron 29, 645-655) were 15.9±5.5 pA/pF (n=10, carbachol) and 127.8±57.6 pA/pF (n=6, trypsin).

[2] = system: non-transfected HM1 cells; assay: Electrophysiological measurement of agonist-induced ion currents in non-transfected HM1 cells; assay type: cell-based
Description: as §1

[3] = Cova-PIP plate binding assay (DELFIA); conditions: plates loaded with 100 pmol substrate per well; varying amounts of SESTD1
Description: The GST-tagged PH-domain of LL5-α, GST alone or GST-SESTD1 were diluted in blocking buffer a) for PIP strips (Example 8a). Cova-PIP specificity plates (Echelon, Salt Lake City, USA) loaded with 10 or 100 pmol PIPn per well were incubated with 100 μL protein solution per well for 3 hrs at RT. Plates were washed manually 3 times with blocking buffer a) for PIP strips before 100 μL anti-GST (1:1,000 in blocking buffer a) for PIP strips were added to each well and incubated 1 hr at RT. Plate was washed 4 times with TBST (150 mM NaCl, 10 mM Tris-HCl, 0.1% Tween 20, pH8) using an automatic plate washer.
For dissociation-enhanced lanthanide fluorescence immunoassays (DELFIA) 100 μL secondary Eu-N1-labeled anti-rabbit antibody (500 ng/mL in blocking buffer a) for PIP strips were added per well and incubated 1 hr at RT. […] After 20 min incubation fluorescence of the lanthanide was excited (Aexc=340 nm) and read (λexc=620 nm) in a Tecan Ultra plate reader (Tecan, Crailsheim, Germany).
FIG. 14: Detection of SESTD1-phospholipid binding in Cova-PIP specificity plates using DELFIA. […] Bound protein was detected with anti-GST (1:1,000) and secondary Eu-N1-labeled goat anti-rabbit antibody (50 ng/well). Lanthanide fluorescence (λexc=340 nm, λem=620 nm) was measured.

[4] = PIP strip phospholipid overlay assay; assay type: binding; conditions: 500 ng/mL GST-SESTD1; 60 nM or 2.5 μM free Ca2+
Description: PIP strips (Invitrogen, Karlsruhe, Germany) are commercially available nitrocellulose membranes containing 100 μmol samples of 15 different phospholipids and a blank sample. They were blocked with different blocking buffers for PIP strips that are composed of 3% essentially fatty acid free BSA (Sigma, Munich Germany) in • a) TBST (150 mM NaCl, 10 mM Tris-HCl, 0.1% Tween 20, pH 8), • b) TBST with 0.06 μM free Ca^2+ (150 mM NaCl, 10 mM Tris-HCl, 1 mM EGTA, 1 mM MgCl2, 0.9 mM CaCl2, 0.1% Tween 20, pH 8) • c) TBST with 2.5 μM free Ca^2+ (150 mM NaCl, 10 mM Tris-HCl, 1 mM EGTA, 1 mM MgCl2, 1 mM CaCl2, 0.1% Tween 20, pH 8) for 1 hr (RT) and subsequently incubated with blocking buffer a) containing 500 ng/mL purified GST or blocking buffer b) or c), respectively, with 500 ng/mL GST-SESTD1 (4 hr, RT). After washing (2 times with the individual blocking buffers and subsequently once with blocking buffer a)) they were incubated at 4° C. overnight with the first antibody anti-GST (1:2,000 in blocking buffer a)). […] The membranes were washed again three times with TBST, incubated with 1 mL Lumi-LightPLUS Western blotting substrate (5 min) (Roche, Mannheim, Germany) and the chemiluminescent signals were analyzed with a Lumi Imager (Roche, Mannheim, Germany).
FIG. 13: SESTD1 binding of phospholipids is Ca^2+-dependent. […] Signals were detected by enhanced chemiluminescence (ECL).

Binding to phosphatidyl-inositol-mono- and diphosphates (PIP, PIP2) and phosphatidic acid [4]	Molecule	Current densities of carbachol and trypsin-induced ion currents [1]	Currents induced by carbachol or trypsin [2]	Binding on Cova PIP specificity plates [3]
–	trypsin	127.8±57.6 pA/pF	no significant currents	–
–	C[N+](C)(C)CCOC(N)=O [carbachol]	15.9±5.5 pA/pF	no significant currents	–
Specific binding	GST-SESTD1: recombinant human SESTD1 N-terminally fused with GST, expressed in E. coli (protein, left off: a dimerising Fc or GST, recombinant human SESTD1 N-terminally fused with GST, expressed in E. coli) MEASVILPILKKKLAFLSGGKDRRSGLILTIPLCLEQTNMDELSVTLDYLLSIPSEKCKARGFTVIVDGRKSQWNVVKTVVVMLQNVVPAEVSLVCVVKPDEFWDKKVTHFCFWKEKDRLGFEVILVSANKLTRYIEPCQLTEDFGGSLTYDHMDWLNKRLVFEKFTKESTSLLDELALINNGSDKGNQQEKERSVDLNFLPSVDPETVLQTGHELLSELQQRRFNGSDGGVSWSPMDDELLAQPQVMKLLDSLREQYTRYQEVCRQRSKRTQLEEIQQKVMQVVNWLEGPGSEQLRAQWGIGDSIRASQALQQKHEEIESQHSEWFAVYVELNQQIAALLNAGDEEDLVELKSLQQQLSDVCYRQASQLEFRQNLLQAALEFHGVAQDLSQQLDGLLGMLCVDVAPADGASIQQTLKLLEEKLKSVDVGLQGLREKGQGLLDQISNQASWAYGKDVTIENKENVDHIQGVMEDMQLRKQRCEDMVDVRRLKMLQMVQLFKCEEDAAQAVEWLSELLDALLKTHIRLGDDAQETKVLLEKHRKFVDVAQSTYDYGRQLLQATVVLCQSLRCTSRSSGDTLPRLNRVWKQFTIASEERVHRLEMAIAFHSNAEKILQDCPEEPEAINDEEQFDEIEAVGKSLLDRLTVPVVYPDGTEQYFGSPSDMASTAENIRDRMKLVNLKRQQLRHPEMVTTES	–	–	bound specifically to all phosphoinositides
